The other results are listed elsewhere or left out.
Test system: T1, Caupolican (Caup) homeodomain DNA-binding domain
T1 sequence: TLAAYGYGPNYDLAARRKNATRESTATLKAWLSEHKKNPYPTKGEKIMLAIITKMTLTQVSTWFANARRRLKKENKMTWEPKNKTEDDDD
Assay: PBM E-score (8-mer, recovered from the published 9-mer minima) (E-score (dimensionless, -0.5 to 0.5)); Drosophila protein; higher = stronger relative binding preference, active = 0.31 or more
Procedure, shortened: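 Caup's homeodomain DNA-binding domain (residues 214-303) was made by in vitro transcription and translation and applied at 100 nM to custom-designed protein binding microarrays. Each value is an enrichment score that gives relative binding preference for a short DNA word, with higher meaning stronger. The 8-mer values were recovered from published 9-mer scores, each of which was the minimum of its two constituent 8-mer scores. A cutoff of 0.31 marks candidate sites.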

PBM E-score, ≥ 0.074:
CGAGACTA

PBM E-score, active:
ATGTCGTA 0.337
ACATGACA ≥ 0.43

PBM E-score, inactive:
GCCGTCAA -0.0776
CCTGATCC -0.0521
CGAGCTTA -0.112
AAGCTTGT 0.282
AAGTTCGA 0.0677
CATACAGA 0.151
ATGGAGGC -0.149
CTACGTAA -0.0257
ATGCCTGC -0.036
AGGGACTC -0.146
ACCAAGTG -0.0646
AGGGCGGA -0.272
TAACGATA 0.161
AGAACCTG 0.0622
GATTAAAC 0.0623
CGTGTCCA 0.227
AATGGTGT 0.223
CCTGTCCC 0.0153
ATATTTCC 0.0539
CAGCTCAG -0.0744
GTCGGCGA -0.188
TGATCGAA 0.0508
ATGGCATG 0.128
AGCTAAAA 0.0384
ATTCGAAG -0.0612
TCTTTACA 0.213
CGCTCCAC -0.181
CATTTTAG 0.0311
ACAGCCTC -0.0694
GCACCATA 0.061
CTGCCGTA -0.165
TATCACAA 0.208
CTTTTGTC 0.0876
CCCTTCAC -0.115
GGTTCGTA -0.0336
GGTACTCA 0.0276
ATAGCGAT 0.0345
AAGGCTGT -0.0057
CGCGGTAA -0.00355
AGGGCCTC -0.199
GGTCGAAA -0.106
GACCCTAC -0.138
ATCATCAA 0.062
ATTCTCTC -0.0907
TCGATGAA 0.046
TAGCGGGA -0.169
GCTACAAC 0.169
CGCTCGTA 0.0346
CTACAATA 0.228
TAACTGCA 0.0888
AAGTGAGA -0.0758
CCGGAAGC -0.199
ACAGTAAG 0.0415
ATTCAACC 0.0253
TAAGTGGA 0.0584
AGTCGCTG -0.0199
GTCAAGCA -0.0651
AGTTAAAT 0.11
GTCCCTCA -0.126
CGGTCTCA -0.0553
GGGCATGA -0.0903
CCCCGATC -0.274
CTATATTC 0.0189
CTAATGGA -0.0695
ACGAGGCT -0.0132
GTTCCGAA 0.0909
AGTACACT 0.181
TCAGCAGA -0.0495
AACTGGTA 0.0223
TAGGGGGA -0.243
AACACCAG 0.137
CCGAGCAG -0.0223
ATTAACCA 0.14
CCTCCGGA -0.172
GTGTTTTA 0.213
AACGAGGT 0.0473
AGGGGGAC -0.287
CCAGGTGA -0.00212
ACCGCTTC -0.14
AAATCAAG 0.0444
ATGGTATG 0.132
CCAAATAA 0.126
GTATCTTA 0.14
CCAATCTC 0.0676
ACCTAACC 0.0148
AAGAACTT 0.0363
TCGGCAGA -0.0919
ACCCAACC -0.053
GAGTAGGC -0.142
CACCTGGC -0.082
ATACCACA 0.0715
ATACGGTA 0.0499
GCGGTAGC -0.103
ATAATGAT 0.14
CTTTCTCA -0.0121
GAAAAAAC 0.0292
AGATGGAG -0.0743
CTTGATGC -0.0664
GCGTCTCC -0.136
CGTGTTCC 0.257
CGAGACCC -0.136
CTTCGTTC -0.0801
GAGACGAA -0.0944
AGCACGCG -0.0415
ACTCATTG 0.0883
AGCTTGGC -0.157
GGGAGTAA 0.0271
GTGACACA 0.245
CTATTCAA 0.142
AGGGGTAC -0.0164
ACCGGGAA -0.0392
CAGACGCG -0.161
AGCTCCGA -0.0667
CCGCTAAG -0.145
AGTAGATG 0.106
CAGGCCAC -0.175
ACTTAGGA -0.0286
GTAGTTAA 0.201
GCCTTTGA 0.0423
GGAGCCCA -0.218
GACTGTAA 0.127
GGGGCCAA -0.269
AGAGCTGG -0.0349
CAGATGAG 0.0267
ATCGGTTC -0.021
AGCCTTCC -0.243
TACGGCTA -0.0377
AGCCATGG -0.0528
AACGGCTT -0.147
GCAGGTGA -0.0486
CTCATGTC 0.306
CGTGGGGA -0.131
AGGGCCAT -0.116
GTTCGTCA 0.0192
AGCCCTGC -0.232
TAAACCGA 0.0913
CTAGGGCC -0.235
CCGATCAC 0.049
CTGTATCC 0.2
ATAAACGC -0.00028
CCGTTGGC -0.151
CAAGCTCG -0.114
GCTAAGAC -0.0692
CGTTGCAA 0.00353
AATCTCTA 0.0932
CAATATGA 0.132
CACCGCCG -0.161
CTGCCTGC -0.201
CACCCCTA -0.0888
AGTAGACC 0.0256
CGCTTGGC -0.165
AGTTTAAC 0.119
GATGCGGC -0.211
GCTATAGA -0.0486
CGGACCTC -0.205
CCGGAGTC -0.182
CGGAACGC -0.111
AGCCTGGC -0.213
GCAGGGGA -0.239
GTAGCCCA 0.00973
ACATCCCC 0.0968
ATGCCCCG -0.14
AGAAACGA 0.0571
ACACGTTG 0.229
CCTCTGAG -0.224
CCCCCAAA -0.228
CCATGGTA 0.133
CATCCTGA 0.007
ACGGTGAG -0.136
GAGATCGC -0.0885
AGCCCCTA -0.186
GAGGCCCA -0.232
GACCTGAC -0.0401
AGAGGGCG -0.153
GTAGGAGA -0.0257
GGCATAAA -0.021
CCCAGTAG -0.0965
AAAGACAG 0.032
CGTTTCCC -0.165
CCTACTCA -0.0849
GGATAACC -0.0854
CTCGAGAG -0.112
AAGTTATC 0.0886
TGAACTAA 0.026
AATGTACC 0.192
CCCATCTC -0.167
CTCCGTAA -0.142
CGCACAGA -0.0672
CGCGACAG -0.0284
AAGCGGAG -0.0542
CGTTTCCA 0.0216
CTCGTTTA 0.0535
CGATTTCA -0.0117
CAGGACTA 0.043
CAACTATG 0.168
CCCTTGAC -0.0839
CTCTGCAG -0.0908
CTTTTTAA -0.0201
CGGCGTCA -0.146
AAGATCTT 0.0143
ATCATGAC 0.233
ATGAGAAC 0.0869
GATGTCAC 0.294
ACCGTAAT 0.00498
AATAGACC -0.0627
ACAAGCGG 0.219
CGGAACTC -0.05
CCAGCCGA -0.199
ACTATCAA 0.127
AAATCCTG 0.0969
CACCGTAC 0.107
AAGCGTCT -0.129
CTACGTAG -0.0763
GGATTTTA 0.0194
TCTAATCA 0.155

PBM E-score, ≥ 0.132:
TTTCAAAA

PBM E-score, ≥ 0.0283:
TATGCCGA

PBM E-score, ≥ 0.143:
ATACCCTA

PBM E-score, ≥ -0.0596:
AGGTGCCA

From the supplement of paper PMC3724861
